In US20250270274A1 (SERPENTIDE, published 2025):

Target: dulaglutide (TRULICITY brand)
Experiment: ELISA, nanobody-hIgG1Fc on dulaglutide

B1: P68-hIg1Fc (Fc fusion)
chain: QVRLVESGGGLVQAGGSLRLSCTASGRTFSSYSVGWFRQAPGKERAFVAVISKSGGITTYADSVKGRFIISRDNAKNTVYLQMNSLKPEDTAVYYCAASGSSLRLADSGSWGQGTQVTVSS[human IgG1 Fc with changes not given here]
notes: Alpaca nanobody raised against SP01, fused to human IgG1 Fc; also called P68-hIgG1Fc
B1 gave an EC50 of 0.0182 µg/mL.

B2: P67-hIg1Fc (Fc fusion)
chain: QVQLVESGGGLVQPGGSLRLSCAASGSVFSRNFMGWYRQAPGKQRELVAYITVDGGTRYADSVKGRFTISRDNAKNTVYLQMNSLKPEDTAVYYCNRAGTTPYAWGQGTLVTVSS[human IgG1 Fc with changes not given here]
notes: Alpaca nanobody raised against SP01, fused to human IgG1 Fc; also called P67-hIgG1Fc
B2 was tested, and the EC50 was 0.0373 µg/mL.

B3: P70-hIg1Fc (Fc fusion)
chain: EVQLVESGGGLVQAGGSLRLSCVASGRTFGNYRMAWFRQAPGKEREFVAVISRNGGITTYADSAKGRFTLSRDNAKNAVYLQMNSLKPEDTAVYYCTGGRNLGTWDYWGQGTQVTVSS[human IgG1 Fc with changes not given here]
notes: Alpaca nanobody raised against SP01, fused to human IgG1 Fc; also called P70-hIgG1Fc
Binder B3 has an EC50 of 0.00356 µg/mL.

B4: P66-hIg1Fc (Fc fusion)
chain: EVQVQESGGGLVQAGGSLRLSCAASGRSFRSDRMGWFRQAPGKEREFVAVISRGGGVTTYADSVKGRFTVSRDDAKNTVDLQMNSLKPEDTAVYYCAAGITTKAANYWGMGTQVTVSS[human IgG1 Fc with changes not given here]
notes: Alpaca nanobody raised against SP01, fused to human IgG1 Fc; also called P66-hIgG1Fc
In the case of B4, the EC50 is reported as 0.0193 µg/mL.

B5: P73-hIg1Fc (Fc fusion)
chain: QVQLVESGGGLVQPGGSLRLSCVASGNIFSSSIMGWYRQAPGKQREAVAFITNGGSTDYADSVKGRFTISRDNAKNTTYLQMNSLKFEDTAVYYCNLRNQRNFQEGSLGQGTQVTVSS[human IgG1 Fc with changes not given here]
notes: Alpaca nanobody raised against SP01, fused to human IgG1 Fc; also called P73-hIgG1Fc
B5 showed an EC50 of 0.0331 µg/mL.

B6: P72-hIg1Fc (Fc fusion)
chain: EVQLQESGGGLVQAGGSLRLSCVVSGRTFGSLRMAWFRQAPGKEREFVSIISKSGGITTYADSVKGRFTISRDNAKNTVYLQMNSLKPEDTAVYYCAADASIRPRTNPSDYDGWGQGTQVTVSS[human IgG1 Fc with changes not given here]
notes: Alpaca nanobody raised against SP01, fused to human IgG1 Fc; also called P72-hIgG1Fc
B6 showed an EC50 of 0.0156 µg/mL.

B7: P64-hIg1Fc (Fc fusion)
chain: EVQLQESGGGLVQAGGSLRLSCAASGSISSLNGIWYRQAPGKQREVVAGITSGGSTNYADSVKGRFTISRDNAKNTVYLQMNGLKPEDTAIYYCNTVRNWDIRTALSRSGGQGTQVTVSS[human IgG1 Fc with changes not given here]
notes: Alpaca nanobody raised against SP01, fused to human IgG1 Fc; also called P64-hIgG1Fc
With B7 the EC50 was 0.073 µg/mL.

B8: P62-hIg1Fc (Fc fusion)
chain: QVQLVETGGGLVQAGGSLRLSCAASGRTFSSYRMGWFRQAPGKEREFVAVISRSGDVTTYAHSVKGRFTVSRDNAKNTVYLQMNSLKPEDTAVYYCAAGLAANTANYWGQGTQVTVSS[human IgG1 Fc with changes not given here]
notes: Alpaca nanobody raised against SP01, fused to human IgG1 Fc; also called P62-hIgG1Fc
Binder B8 has an EC50 of 0.0187 µg/mL.

B9: P71-hIg1Fc (Fc fusion)
chain: QVQLVESGGGLVQAGGSLRLSCVASGRTFSSGRMAWFRQAPGKEREFVAVISQNGGVTTYAASVKGRFTVSRDNAKNTVYLQMNSLKPEDTAVYYCAAGVTTNTANYWGQGTRVTVSS[human IgG1 Fc with changes not given here]
notes: Alpaca nanobody raised against SP01, fused to human IgG1 Fc; also called P71-hIgG1Fc
In the case of B9, the EC50 is reported as 0.036 µg/mL.

B10: P65-hIg1Fc (Fc fusion)
chain: QVQLVESGGGLVQPGGSLRLSCAASGSIFAINVMGWYRQASGNQRELVAGITTGGARDYADSVKGRFTISRDNAKNTVYLSMNSLKPEDTAVYYCNLHAPKYIDSRYDYWGQGTQVTVSS[human IgG1 Fc with changes not given here]
notes: Alpaca nanobody raised against SP01, fused to human IgG1 Fc; also called P65-hIgG1Fc
B10 showed an EC50 of 0.15 µg/mL.
